Among the data in article PMC5233801 are binding values, retold here.

The target of assay [1] is T1, SPL3 fused to GAL4 DNA-binding domain (Arabidopsis thaliana) (UniProt P93015).
T1 sequence: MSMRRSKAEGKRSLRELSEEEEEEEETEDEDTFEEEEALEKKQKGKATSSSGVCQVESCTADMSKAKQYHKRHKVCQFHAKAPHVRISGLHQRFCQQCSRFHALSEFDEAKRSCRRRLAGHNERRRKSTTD
Put plainly: two-hybrid; yeast AH109; SPLs fused to GAL4 DNA-binding domain (pGBKT7), partners fused to GAL4 activation domain (pGADT7); SD-Leu-Trp-His or SD-Ade-Leu-Trp-His plates with 10 mM (SPL2, SPL3) or 15 mM (SPL9) 3-amino-1,2,4-triazole, 3-4 days at 30 °C.

Assay [2] deals with T2, SQUAMOSA PROMOTER BINDING PROTEIN-LIKE9 (SPL9) fused to GAL4 DNA-binding domain (Arabidopsis thaliana) (UniProt Q700W2).
T2 sequence: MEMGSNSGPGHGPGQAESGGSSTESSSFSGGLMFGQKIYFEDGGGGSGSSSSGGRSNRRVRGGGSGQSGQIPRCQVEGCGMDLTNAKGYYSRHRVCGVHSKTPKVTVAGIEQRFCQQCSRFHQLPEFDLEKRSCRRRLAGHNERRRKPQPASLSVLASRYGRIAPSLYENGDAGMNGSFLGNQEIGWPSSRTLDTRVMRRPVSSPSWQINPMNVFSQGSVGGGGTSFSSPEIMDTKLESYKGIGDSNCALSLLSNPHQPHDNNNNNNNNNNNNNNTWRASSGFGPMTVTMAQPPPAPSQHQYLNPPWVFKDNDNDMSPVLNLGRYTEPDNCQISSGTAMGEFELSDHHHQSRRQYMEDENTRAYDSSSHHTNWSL
Described as above.

In assay [3] the target is T3, SPL2 fused to GAL4 DNA-binding domain (Arabidopsis thaliana) (UniProt Q9S840).
T3 sequence: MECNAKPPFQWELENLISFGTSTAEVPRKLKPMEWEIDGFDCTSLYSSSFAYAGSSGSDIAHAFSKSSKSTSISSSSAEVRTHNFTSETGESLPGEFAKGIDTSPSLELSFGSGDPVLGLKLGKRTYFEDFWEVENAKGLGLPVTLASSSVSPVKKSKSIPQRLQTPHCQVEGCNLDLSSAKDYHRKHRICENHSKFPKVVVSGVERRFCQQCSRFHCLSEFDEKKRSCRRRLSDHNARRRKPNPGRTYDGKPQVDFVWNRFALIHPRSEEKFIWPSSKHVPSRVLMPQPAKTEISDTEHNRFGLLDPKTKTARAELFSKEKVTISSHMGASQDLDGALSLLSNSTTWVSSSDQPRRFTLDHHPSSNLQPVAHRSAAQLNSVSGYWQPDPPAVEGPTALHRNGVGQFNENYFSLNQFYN
The assay is described as above.

The target in assay [4] is T4, JAZ3 in the JAZ3-SPL9/pBridge construct (Arabidopsis thaliana) (UniProt Q9LVI4).
T4 sequence: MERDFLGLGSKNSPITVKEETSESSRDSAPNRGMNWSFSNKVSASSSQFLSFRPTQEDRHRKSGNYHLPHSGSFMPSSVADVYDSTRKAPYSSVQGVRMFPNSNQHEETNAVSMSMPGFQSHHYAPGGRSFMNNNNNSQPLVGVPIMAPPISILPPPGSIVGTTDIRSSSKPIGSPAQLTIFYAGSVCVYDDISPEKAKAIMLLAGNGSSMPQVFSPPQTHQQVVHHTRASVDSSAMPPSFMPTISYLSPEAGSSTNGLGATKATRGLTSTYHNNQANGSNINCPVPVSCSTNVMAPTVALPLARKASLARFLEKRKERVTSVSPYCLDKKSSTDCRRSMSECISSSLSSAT
The experiment in a line: yeast three-hybrid; yeast AH109 with JAZ3-SPL9/pBridge and COI1/pGADT7; liquid SD-Leu-Trp-His with 40 μM coronatine and different concentrations of methionine (SPL9 level falls as Met rises).

These are yes or no findings as the source states them, for the method shown. Some results given as binding are weak or reduced against the parent protein; the word gives no strength. Tags and fused reporters may be left off the sequences shown.

B1: JAZ4 in pGADT7 (protein, UniProt Q58G47 1-310)
chain: MERDFLGLGSKLSPITVKEETNEDSAPSRGMMDWSFSSKVGSGPQFLSFGTSQQETRVNTVNDHLLSSAAMDQNQRTYFSSLQEDRVFPGSSQQDQTTITVSMSEPNYINSFINHQHLGGSPIMAPPVSVFPAPTTIRSSSKPLPPQLTIFYAGSVLVYQDIAPEKAQAIMLLAGNGPHAKPVSQPKPQKLVHHSLPTTDPPTMPPSFLPSISYIVSETRSSGSNGVTGLGPTKTKASLASTRNNQTAAFSMAPTVGLPQTRKASLARFLEKRKERVINVSPYYVDNKSSIDCRTLMSECVSCPPAHHLH
For the molecule B1, the binding entry in assay [1] is “no binding”; in assay [2] it was “binds”; in assay [3], “binds”.

B2: JAZ9 in pGADT7 (protein, UniProt Q8W4J8 1-267)
chain: MERDFLGLSDKQYLSNNVKHEVNDDAVEERGLSTKAAREWGKSKVFATSSFMPSSDFQEAKAFPGAYQWGSVSAANVFRRCQFGGAFQNATPLLLGGSVPLPTHPSLVPRVASSGSSPQLTIFYGGTISVFNDISPDKAQAIMLCAGNGLKGETGDSKPVREAERMYGKQIHNTAATSSSSATHTDNFSRCRDTPVAATNAMSMIESFNAAPRNMIPSVPQARKASLARFLEKRKERLMSAMPYKKMLLDLSTGESSGMNYSSTSPT
As to B2, the binding result in assay [1] is “no binding”; in assay [3], “binds”.

B3: JAZ11 in pGADT7 (protein, UniProt Q9M246 1-238)
chain: MAEVNGDFPVPSFADGTGSVSAGLDLLVERSIHEARSTEPDASTQLTIIFGGSCRVFNGVPAQKVQEIIRIAFAGKQTKNVTGINPALNRALSFSTVADLPIARRRSLQRFLEKRRDRSTKPDGSMILPSQLTIIFGGSFSVFDGIPAEKVQEILHIAAAAKATETINLTSINPALKRAISFSNASTVACVSTADVPIARRRSLQRFFEKRRHRFVHTKPYSATTSEADKNETSPIVT
Regarding B3, the results for the binding result in assay [1] and in assay [2] were “no binding” and “binds”, respectively.

B4: JAZ7 in pGADT7 (protein, UniProt O64687 1-148)
chain: MIIIIKNCDKPLLNFKEMEMQTKCDLELRLLTSSYDSDFHSSLDESSSSEISQPKQESQILTIFYNGHMCVSSDLTHLEANAILSLASRDVEEKSLSLRSSDGSDPPTIPNNSTRFHYQKASMKRSLHSFLQKRSLRIQATSPYHRYR
Turning to B4, the binding entry in assay [1] is “no binding”.

B5: CORONATINE …1 (COI1) fused to GAL4 activation domain (protein, UniProt O04197 1-592)
chain: MEDPDIKRCKLSCVATVDDVIEQVMTYITDPKDRDSASLVCRRWFKIDSETREHVTMALCYTATPDRLSRRFPNLRSLKLKGKPRAAMFNLIPENWGGYVTPWVTEISNNLRQLKSVHFRRMIVSDLDLDRLAKARADDLETLKLDKCSGFTTDGLLSIVTHCRKIKTLLMEESSFSEKDGKWLHELAQHNTSLEVLNFYMTEFAKISPKDLETIARNCRSLVSVKVGDFEILELVGFFKAAANLEEFCGGSLNEDIGMPEKYMNLVFPRKLCRLGLSYMGPNEMPILFPFAAQIRKLDLLYALLETEDHCTLIQKCPNLEVLETRNVIGDRGLEVLAQYCKQLKRLRIERGADEQGMEDEEGLVSQRGLIALAQGCQELEYMAVYVSDITNESLESIGTYLKNLCDFRLVLLDREERITDLPLDNGVRSLLIGCKKLRRFAFYLRQGGLTDLGLSYIGQYSPNVRWMLLGYVGESDEGLMEFSRGCPNLQKLEMRGCCFSERAIAAAVTKLPSLRYLWVQGYRASMTGQDLMQMARPYWNIELIPSRRVPEVNQQGEIREMEHPAHILAYYSLAGQRTDCPTTVRVLKEPI
With B5, the binding result was “no binding” in assay [2] and “binds” in assay [4].

B6: JAZ10 in pGADT7 (protein, UniProt Q93ZM9 1-197)
chain: MSKATIELDFLGLEKKQTNNAPKPKFQKFLDRRRSFRDIQGAISKIDPEIIKSLLASTGNNSDSSAKSRSVPSTPREDQPQIPISPVHASLARSSTELVSGTVPMTIFYNGSVSVFQVSRNKAGEIMKVANEAASKKDESSMETDLSVILPTTLRPKLFGQNLEGDLPIARRKSLQRFLEKRKERLVSTSPYYPTSA
For the molecule B6, the values for the binding entry in assay [1] and in assay [2] were “no binding” and “binds”, respectively.

B7: SPL9 in the JAZ3-SPL9/pBridge construct, expressed from the PMet25 promoter (protein, UniProt Q700W2 1-375)
chain: MEMGSNSGPGHGPGQAESGGSSTESSSFSGGLMFGQKIYFEDGGGGSGSSSSGGRSNRRVRGGGSGQSGQIPRCQVEGCGMDLTNAKGYYSRHRVCGVHSKTPKVTVAGIEQRFCQQCSRFHQLPEFDLEKRSCRRRLAGHNERRRKPQPASLSVLASRYGRIAPSLYENGDAGMNGSFLGNQEIGWPSSRTLDTRVMRRPVSSPSWQINPMNVFSQGSVGGGGTSFSSPEIMDTKLESYKGIGDSNCALSLLSNPHQPHDNNNNNNNNNNNNNNTWRASSGFGPMTVTMAQPPPAPSQHQYLNPPWVFKDNDNDMSPVLNLGRYTEPDNCQISSGTAMGEFELSDHHHQSRRQYMEDENTRAYDSSSHHTNWSL
Take B7: the binding entry in assay [4] was “binds”.
